{"source": "PubChem BioAssay AID1794734", "about": "(DTP/NCI, 2022)", "tested_on": "HOP-18 NSCLC", "test": "NCI-60 one-dose screen, 48 h (100 = growth as untreated, 0 = no growth, -100 = all killed)", "conditions": "2.5 mM", "method": "Growth inhibition of the HOP-18 human Non-Small Cell Lung tumor cell line is measured as a screen for anti-cancer activity. Cells are grown in 96 well plates and exposed to the test compound for 48 hours. Compounds are tested at a single concentration, which is 10^-5 M for most compounds. The reported endpoint is percent growth (GI% or GIPRCNT), where numbers from 0 - 100% represent growth inhibition, and numbers from -100% - 0 represent cell death. For example, a value of 40 represents 60% growth inhibition. A value of 0 means no net growth occurred over the course of the experiment. A value of -40 indicates 40% of cells at the beginning of the experiment died by the end of the experiment. A value of -100 means all cells are dead at the end of the experiment.\nNCI-60 Human Tumor Cell Lines Screen was performed using the standard one-dose NCI protocol, which is described in more detail at https://dtp.cancer.gov/discovery_development/nci-60/default.htm.\nCompounds with GIPRCNT values below 10 were considered active. Activity score was based on GIPRCNT using the following formula: […]\nScore is 0 for GIPRCNT values of 100 or above, 50 for GIPRCNT values of 0, and 100 for GIPRCNT values of -100.", "note": "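Growth was measured after 48 h exposure to one concentration of compound in 96-well plates. Values under 10 count as active.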 For part of its entries the source gives two or more results. The other results are left out here. An entry can have further records. These are repeated runs of one drug, at its own concentration, as given; each value is one run. Marks such as (2×) give the number of equal values in this list.", "data": [{"smiles": "O=c1[nH]cc(F)c(=O)[nH]1", "values": [{"measurement": "growth", "setting": "runs of 1991", "value": "31.8, 72.5, 28.6, 26.3, 68.9, 43.7, 38, 37.7, 88.4, 51.4, 35.8, -0.163%"}, {"measurement": "growth", "setting": "runs of 1992", "value": "90.1, 109, 12.3, 43.5, 21.9, 44.6, 106, 63.2, 34.6 (2×), 50.4, 34.5, 56.3, 70, 91, 40.2, 53.9, 51.8, 58.6, 66.8, 32.1, -7.38, 49.1 (2×), 131, 79.7, 105, 78.1, 135, 113, 74.7, -2.45, 99.5, 44.5, 78.9, 88.2, 126, 18, 29.8, 24.1, 34.9, 17.9, 104, 80.6, 21, 28.4, 29.9, 19.9, 39.1, 32.7, 90.8, 31.4, 36.7, 1.79, 22.7, 22.5, 31.8, 71.1, 23.2, 28.8, 9.23, 35.6, 33.4, -13.4, 49.9, 23, 69.1, 29.3, 22.1, 47.4, 101, 60.6, 60.2%"}]}]}
